According to patent publication US20190382481A1 (Janssen / Centocor, published 2019):

What was measured:
human CD33 = human CD33 (human, UniProt P20138); test: cell-based or functional assay
Human CD33-V-HSA = target: T1, Human CD33-V-HSA (human); test: IBIS SPRi off-rate screen; antigen as analyte
T1 construct: V domain of human CD33 fused to HSA; also called C33W3; huCD33-V-HSA
Experimental: (§1) To begin assessing the biophysical binding properties of the purified mAbs an off-rate screen was performed. 76 OMNIRat anti-CD33 mAbs were tested for binding to recombinant human CD33 ECD-HSA (C33W2) and cyno CD33 ECD-HSA (C33W1) proteins (Janssen production) and the off-rate was measured by IBIS MX96 SPRi array platform (Carterra; Newton, Pa.). […] The sensor chip was transferred to the Continuous Flow Microspotter (CFM) unit to capture each anti-CD33 mAb at 10 μg/ml for 10 minutes. Binding was measured on IBIS SPRi by single cycle kinetics without regeneration. Each antigen concentration series (3 μM in 3 fold dilution series) was sequentially injected from low (0.46 nM) to high concentrations (3 μM) to bind to captured mAbs with an association time of 5 minutes and dissociation time of 15 minutes using PBST (PBS with 0.005% Tween) as running buffer. The raw binding data (.trix file format) were referenced and aligned using SprintX software (Wasatch, Ver 1.9.3.2), then exported (.ibmx file format) to Scrubber software (Ver. 2.0) for 1:1 binding kinetic analyses (Wasatch, version 2.0.0.33) to extract the koff results.
(§2) CD33 is comprised of 2 IgG domains, the membrane distal V domain and the membrane proximal C2 domain. […]

Human CD33 ECD-HSA = target: T2, Human CD33 ECD-HSA (human, UniProt P20138 18-259); test: IBIS SPRi off-rate screen; antigen as analyte
Sequence of Human CD33 ECD-HSA (P20138 18-259 limits assumed, form in doubt): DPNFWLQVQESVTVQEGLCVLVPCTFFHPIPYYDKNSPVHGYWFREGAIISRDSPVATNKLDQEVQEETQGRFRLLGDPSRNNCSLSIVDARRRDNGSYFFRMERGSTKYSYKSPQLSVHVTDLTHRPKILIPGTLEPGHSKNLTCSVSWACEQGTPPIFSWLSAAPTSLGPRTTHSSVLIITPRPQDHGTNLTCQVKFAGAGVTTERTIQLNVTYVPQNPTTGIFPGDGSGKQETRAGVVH
T2 construct: Human CD33 ECD (Uniprot P20138) fused at the C-terminus to monomeric HSA (C58S) and a six-histidine tag; also called C33W2; huCD33 ECD-HSA; not shown: HSA (C58S) carrier, its junction or linker to the ECD, and the layout of the His tag
Experimental: as §1, §2

Human CD33-C2-HSA = target: T3, Human CD33-C2-HSA (human); test: IBIS SPRi off-rate screen
T3 construct: C2 domain of human CD33 fused to HSA; also called C33W4; huCD33-C2-HSA

Sequence of human CD33 (P20138 18-364 limits assumed): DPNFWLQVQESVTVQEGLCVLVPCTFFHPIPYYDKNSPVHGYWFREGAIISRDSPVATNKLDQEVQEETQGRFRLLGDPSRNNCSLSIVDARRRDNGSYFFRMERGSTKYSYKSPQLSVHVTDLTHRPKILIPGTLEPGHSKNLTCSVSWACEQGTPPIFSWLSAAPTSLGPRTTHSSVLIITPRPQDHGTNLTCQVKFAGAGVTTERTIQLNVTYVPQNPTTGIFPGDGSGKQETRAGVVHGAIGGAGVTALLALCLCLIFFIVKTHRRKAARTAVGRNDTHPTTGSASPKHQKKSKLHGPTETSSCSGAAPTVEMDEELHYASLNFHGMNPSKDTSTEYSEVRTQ

koff (Human CD33-V-HSA) [s⁻¹]	koff (Human CD33 ECD-HSA) [s⁻¹]	binding result (Human CD33-C2-HSA)	Binder	EC50 (nM), CD33 internalization assay (Protein A-MMAF cell viability, MOLM13) (human CD33) [nM]
			C33B904 (antibody, human IgG4 S228P, kappa, F234A L235A) heavy: EVQLVESGGGLVQPGRSLRLSCAASGFTFDDYAMHWVRQAPGKGLEWVSGIGWSGGSIVYADSVKGRFTISRDNAKNSLYLQMNSLRAEDTALYYCAKDSPYGDFFDYWGQGTLVTVSSASTKGPSVFPLAPCSRSTSESTAALGCLVKDYFPEPVTVSWNSGALTSGVHTFPAVLQSSGLYSLSSVVTVPSSSLGTKTYTCNVDHKPSNTKVDKRV[in this place human IgG4 Fc with S228P F234A L235A (EU numbers)] light: DIVMTQSPDSLAVSLGERATINCKSSQTVFYSSNNKNYLAWYQQKPGQPPKLLISWASTRKSGVPDRFSGSGSGTDFTLTVSSLQAEDVAVYYCQHYYSTPYTFGQGTKLEIKRTVAAPSVFIFPPSDEQLKSGTASVVCLLNNFYPREAKVQWKVDNALQSGNSQESVTEQDSKDSTYSLSSTLTLSKADYEKHKVYACEVTHQGLSSPVTKSFNRGEC	0.96
			C33B806 (antibody) heavy: QLQLQESGPGLVKPSETLSLTCTVSGGSISSSSYYWGWIRQPPGKGLDWIGSINYSGSTYYNPSLKSRVTISVDTSKIQFSLKLRSVTAADTAVYYCARLDGYESPFDYWGQGTLVTVSSASTKGPSVFPLAPCSRSTSESTAALGCLVKDYFPEPVTVSWNSGALTSGVHTFPAVLQSSGLYSLSSVVTVPSSSLGTKTYTCNVDHKPSNTKVDKRV[in this place human IgG4 Fc with S228P F234A L235A (EU numbers)] light: DIQMTQSPSSVSASVGDRVTITCRASQGISSWLAWYQQKPGKAPKLLIYAASSLQSGVPSRFSGSGSGTDFTLTISSLQPEDFATYYCQQANSFPFTFGPGTKVDIKRTVAAPSVFIFPPSDEQLKSGTASVVCLLNNFYPREAKVQWKVDNALQSGNSQESVTEQDSKDSTYSLSSTLTLSKADYEKHKVYACEVTHQGLSSPVTKSFNRGEC	0.22
0.00318	0.00136	no binding	C33B806 (antibody, huIgG4 PAA; HC C33H69, LC C4LL152 (same V region as C33B101); also called C33F106) heavy: QLQLQESGPGLVKPSETLSLTCTVSGGSISSSSYYWGWIRQPPGKGLDWIGSINYSGSTYYNPSLKSRVTISVDTSKIQFSLKLRSVTAADTAVYYCARLDGYESPFDYWGQGTLVTVSSASTKGPSVFPLAPCSRSTSESTAALGCLVKDYFPEPVTVSWNSGALTSGVHTFPAVLQSSGLYSLSSVVTVPSSSLGTKTYTCNVDHKPSNTKVDKRV[in this place human IgG4 Fc with S228P F234A L235A (EU numbers)] light: DIQMTQSPSSVSASVGDRVTITCRASQGISSWLAWYQQKPGKAPKLLIYAASSLQSGVPSRFSGSGSGTDFTLTISSLQPEDFATYYCQQANSFPFTFGPGTKVDIKRTVAAPSVFIFPPSDEQLKSGTASVVCLLNNFYPREAKVQWKVDNALQSGNSQESVTEQDSKDSTYSLSSTLTLSKADYEKHKVYACEVTHQGLSSPVTKSFNRGEC	
